{"source": "the supplement of paper PMC8728848", "binders": {"B1": {"name": "Epa1 (Candida glabrata) (protein)", "chain": "MGSSHHHHHHSSGLVPRGSHMTSSNDISLASKDPTTFPLGCSPDITTPKKGLSMELYSYDFRKKGSYPCWDAAYLDPNYPRTGYKSHRLLAKVDGVTGNINFYYHATKGCTPQLGHLPASYNYPKPLTMTNFTMLLYGYFRPKVTGFHTFTISADDLLFVNFGAGNAFDCCRRDSSADHFGNYQAYAIWGSKTAKDELTVHLDAGVYYPIRLFYNNREYDGALSFTFKTESNENTVSDFSEYFFSLDDTEEGCPGLISYD"}}, "experiment_in_all_cases": "glycan array binding signal (z-score within array); higher = stronger binding", "conditions_in_all_cases": "glycan notation: IUPAC condensed, linker removed", "key": {"Gal(a1-3)Gal": {"target": "Gal(a1-3)Gal", "outline": "(§1)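 Columns mapping to the same glycan were averaged after glycan names were converted to IUPAC-condensed notation. The data come from 3228 arrays in the Consortium for Functional Glycomics database, limited to those with an available protein sequence. Binding is reported as a within-array Z-score averaged across arrays of one protein sequence and across linkers.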"}, "Gal(a1-3)Gal(b1-3)GlcNAc": {"target": "Gal(a1-3)Gal(b1-3)GlcNAc", "outline": "as §1"}, "[1]": {"target": "Gal(a1-3)Gal(b1-3)GlcNAc(b1-2)Man", "outline": "as §1"}, "[2]": {"target": "Gal(a1-3)Gal(b1-3)GlcNAc(b1-2)Man(a1-3)[Gal(a1-3)Gal(b1-3)GlcNAc(b1-2)Man(a1-6)]Man(b1-4)GlcNAc(b1-4)GlcNAc", "outline": "as §1"}, "[3]": {"target": "Gal(a1-3)Gal(b1-3)GlcNAc(b1-3)GalNAc", "outline": "as §1"}, "[4]": {"target": "Gal(a1-3)Gal(b1-3)GlcNAc(b1-6)GalNAc", "outline": "as §1"}, "[5]": {"target": "Gal(a1-3)Gal(b1-3)[Fuc(a1-4)]GlcNAc(b1-2)Man(a1-3)[Gal(a1-3)Gal(b1-3)[Fuc(a1-4)]GlcNAc(b1-2)Man(a1-6)]Man(b1-4)GlcNAc(b1-4)GlcNAc", "outline": "as §1"}, "Gal(a1-3)Gal(b1-4)Glc": {"target": "Gal(a1-3)Gal(b1-4)Glc", "outline": "as §1"}, "Gal(a1-3)Gal(b1-4)GlcNAc": {"target": "Gal(a1-3)Gal(b1-4)GlcNAc", "outline": "as §1"}, "[6]": {"target": "Gal(a1-3)Gal(b1-4)GlcNAc(b1-2)Man", "outline": "as §1"}, "[7]": {"target": "Gal(a1-3)Gal(b1-4)GlcNAc(b1-2)Man(a1-3)[Gal(a1-3)Gal(b1-4)GlcNAc(b1-2)Man(a1-6)]Man(b1-4)GlcNAc(b1-4)GlcNAc", "outline": "as §1"}, "[8]": {"target": "Gal(a1-3)Gal(b1-4)GlcNAc(b1-3)GalNAc", "outline": "as §1"}, "[9]": {"target": "Gal(a1-3)Gal(b1-4)GlcNAc(b1-6)GalNAc", "outline": "as §1"}, "[10]": {"target": "Gal(a1-3)Gal(b1-4)[Fuc(a1-3)]GlcNAc", "outline": "as §1"}, "[11]": {"target": "Gal(a1-3)Gal(b1-4)[Fuc(a1-3)]GlcNAc(b1-2)Man(a1-3)[Gal(a1-3)Gal(b1-4)[Fuc(a1-3)]GlcNAc(b1-2)Man(a1-6)]Man(b1-4)GlcNAc(b1-4)GlcNAc", "outline": "as §1"}, "Gal(a1-3)GalNAc": {"target": "Gal(a1-3)GalNAc", "outline": "as §1"}, "[12]": {"target": "Gal(a1-3)[Gal(a1-4)]Gal(b1-4)GlcNAc", "outline": "as §1"}, "[13]": {"target": "Gal(a1-4)Gal(b1-3)GlcNAc(b1-2)Man(a1-3)[Gal(a1-4)Gal(b1-3)GlcNAc(b1-2)Man(a1-6)]Man(b1-4)GlcNAc(b1-4)GlcNAc", "outline": "as §1"}, "Gal(a1-4)Gal(b1-4)Glc": {"target": "Gal(a1-4)Gal(b1-4)Glc", "outline": "as §1"}, "Gal(a1-4)Gal(b1-4)GlcNAc": {"target": "Gal(a1-4)Gal(b1-4)GlcNAc", "outline": "as §1"}, "[14]": {"target": "Gal(a1-4)Gal(b1-4)GlcNAc(b1-2)Man(a1-3)[Gal(a1-4)Gal(b1-4)GlcNAc(b1-2)Man(a1-6)]Man(b1-4)GlcNAc(b1-4)GlcNAc", "outline": "as §1"}, "[15]": {"target": "Gal(a1-4)Gal(b1-4)GlcNAc(b1-3)Gal(b1-4)Glc", "outline": "as §1"}, "Gal(a1-4)GlcNAc": {"target": "Gal(a1-4)GlcNAc", "outline": "as §1"}, "Gal(a1-6)Glc": {"target": "Gal(a1-6)Glc", "outline": "as §1"}, "Gal(b1-2)Gal": {"target": "Gal(b1-2)Gal", "outline": "as §1"}, "Gal(b1-3)Gal": {"target": "Gal(b1-3)Gal", "outline": "as §1"}, "Gal(b1-3)Gal(b1-4)GlcNAc": {"target": "Gal(b1-3)Gal(b1-4)GlcNAc", "outline": "as §1"}, "Gal(b1-3)GalNAc": {"target": "Gal(b1-3)GalNAc", "outline": "as §1"}, "[16]": {"target": "Gal(b1-3)GalNAc(a1-3)[Fuc(a1-2)]Gal(b1-4)Glc", "outline": "as §1"}, "[17]": {"target": "Gal(b1-3)GalNAc(a1-3)[Fuc(a1-2)]Gal(b1-4)GlcNAc", "outline": "as §1"}, "Gal(b1-3)GalNAc(b1-3)Gal": {"target": "Gal(b1-3)GalNAc(b1-3)Gal", "outline": "as §1"}, "[18]": {"target": "Gal(b1-3)GalNAc(b1-3)Gal(a1-4)Gal(b1-4)Glc", "outline": "as §1"}, "[19]": {"target": "Gal(b1-3)GalNAc(b1-4)Gal(b1-4)Glc", "outline": "as §1"}, "[20]": {"target": "Gal(b1-3)GalNAc(b1-4)[Neu5Ac(a2-3)]Gal(b1-4)Glc", "outline": "as §1"}, "Gal(b1-3)GlcNAc": {"target": "Gal(b1-3)GlcNAc", "outline": "as §1"}, "[21]": {"target": "Gal(b1-3)GlcNAc(a1-3)Gal(b1-4)GlcNAc", "outline": "as §1"}, "[22]": {"target": "Gal(b1-3)GlcNAc(a1-6)Gal(b1-4)GlcNAc", "outline": "as §1"}, "Gal(b1-3)GlcNAc(b1-2)Man": {"target": "Gal(b1-3)GlcNAc(b1-2)Man", "outline": "as §1"}}, "note": "This is one part of the list."}
{"binder": "B1", "values": [{"measurement": "glycan array binding signal (z-score)", "setting": "Gal(a1-3)Gal", "value": -0.202}, {"measurement": "glycan array binding signal (z-score)", "setting": "Gal(a1-3)Gal(b1-3)GlcNAc", "value": -0.256}, {"measurement": "glycan array binding signal (z-score)", "setting": "[1]", "value": -0.257}, {"measurement": "glycan array binding signal (z-score)", "setting": "[2]", "value": -0.175}, {"measurement": "glycan array binding signal (z-score)", "setting": "[3]", "value": -0.295}, {"measurement": "glycan array binding signal (z-score)", "setting": "[4]", "value": -0.266}, {"measurement": "glycan array binding signal (z-score)", "setting": "[5]", "value": -0.232}, {"measurement": "glycan array binding signal (z-score)", "setting": "Gal(a1-3)Gal(b1-4)Glc", "value": -0.278}, {"measurement": "glycan array binding signal (z-score)", "setting": "Gal(a1-3)Gal(b1-4)GlcNAc", "value": -0.179}, {"measurement": "glycan array binding signal (z-score)", "setting": "[6]", "value": -0.292}, {"measurement": "glycan array binding signal (z-score)", "setting": "[7]", "value": -0.235}, {"measurement": "glycan array binding signal (z-score)", "setting": "[8]", "value": -0.277}, {"measurement": "glycan array binding signal (z-score)", "setting": "[9]", "value": -0.164}, {"measurement": "glycan array binding signal (z-score)", "setting": "[10]", "value": 0.015}, {"measurement": "glycan array binding signal (z-score)", "setting": "[11]", "value": -0.266}, {"measurement": "glycan array binding signal (z-score)", "setting": "Gal(a1-3)GalNAc", "value": -0.266}, {"measurement": "glycan array binding signal (z-score)", "setting": "[12]", "value": -0.254}, {"measurement": "glycan array binding signal (z-score)", "setting": "[13]", "value": -0.266}, {"measurement": "glycan array binding signal (z-score)", "setting": "Gal(a1-4)Gal(b1-4)Glc", "value": -0.259}, {"measurement": "glycan array binding signal (z-score)", "setting": "Gal(a1-4)Gal(b1-4)GlcNAc", "value": -0.081}, {"measurement": "glycan array binding signal (z-score)", "setting": "[14]", "value": -0.142}, {"measurement": "glycan array binding signal (z-score)", "setting": "[15]", "value": -0.256}, {"measurement": "glycan array binding signal (z-score)", "setting": "Gal(a1-4)GlcNAc", "value": 0.013}, {"measurement": "glycan array binding signal (z-score)", "setting": "Gal(a1-6)Glc", "value": -0.125}, {"measurement": "glycan array binding signal (z-score)", "setting": "Gal(b1-2)Gal", "value": -0.096}, {"measurement": "glycan array binding signal (z-score)", "setting": "Gal(b1-3)Gal", "value": 3.63}, {"measurement": "glycan array binding signal (z-score)", "setting": "Gal(b1-3)Gal(b1-4)GlcNAc", "value": 8.5}, {"measurement": "glycan array binding signal (z-score)", "setting": "Gal(b1-3)GalNAc", "value": 3.51}, {"measurement": "glycan array binding signal (z-score)", "setting": "[16]", "value": 2.05}, {"measurement": "glycan array binding signal (z-score)", "setting": "[17]", "value": 2.44}, {"measurement": "glycan array binding signal (z-score)", "setting": "Gal(b1-3)GalNAc(b1-3)Gal", "value": 6.23}, {"measurement": "glycan array binding signal (z-score)", "setting": "[18]", "value": 2.5}, {"measurement": "glycan array binding signal (z-score)", "setting": "[19]", "value": 9.89}, {"measurement": "glycan array binding signal (z-score)", "setting": "[20]", "value": 4.04}, {"measurement": "glycan array binding signal (z-score)", "setting": "Gal(b1-3)GlcNAc", "value": -0.059}, {"measurement": "glycan array binding signal (z-score)", "setting": "[21]", "value": -0.16}, {"measurement": "glycan array binding signal (z-score)", "setting": "[22]", "value": 0.132}, {"measurement": "glycan array binding signal (z-score)", "setting": "Gal(b1-3)GlcNAc(b1-2)Man", "value": 0.114}]}
